Reference: the antibiotic and cytotoxicity screens of Wong et al. (2023)
This is one part of the list.

Test system: S. aureus RN4220
Assay: growth inhibition call (relative growth <= 0.2)
Conditions: 50 µM

Growth inhibition call, inactive:
COc1cccc(NC(=O)N(C)C[C@H]2Oc3ncc(C#Cc4ccncc4)cc3C(=O)N([C@@H](C)CO)C[C@@H]2C)c1
CC(C)(O)C#Cc1cccc(-c2nc(C(=O)Nc3ccc(-c4ccccc4)cc3)cc3c2[C@@H](CCO)N(S(=O)C(C)(C)C)C3)c1 (stereo partly specified)
C[C@@H]1CN([C@@H](C)CO)C(=O)c2cc(NS(=O)(=O)c3cn(C)cn3)ccc2O[C@H]1CN(C)C(=O)NC1CCCCC1
C[C@H](CO)N1C[C@H](C)[C@@H](CN(C)S(C)(=O)=O)OCCCC[C@H](C)Oc2ccc(NS(=O)(=O)c3ccccc3)cc2C1=O
C[C@@H]1CN([C@@H](C)CO)C(=O)Cc2cc(NC(=O)c3ccncc3)ccc2O[C@@H]1CN(C)S(=O)(=O)c1ccc(F)cc1
C[C@@H]1CN([C@H](C)CO)C(=O)Cc2cc(NS(=O)(=O)c3ccccc3)ccc2O[C@H]1CN(C)S(=O)(=O)c1ccc(F)cc1
C[C@H](CO)N1C[C@H](C)[C@@H](CN(C)S(=O)(=O)c2cn(C)cn2)Oc2ccc(NC(=O)Cn3cnnn3)cc2C1=O
CC[C@@H](C)n1[nH]c(=O)cc1N
CC(OC1OCCN(C(C)c2nc(=O)[nH][nH]2)C1c1ccc(F)cc1)c1cc(C(F)(F)F)cc(C(F)(F)F)c1 (stereo unspecified)
C[C@@H](Oc1cc(-n2cnc3ccc(CN4CCN(C)CC4)cc32)sc1C(N)=O)c1ccccc1C(F)(F)F
CCCN(C)C[C@H]1OCCCC[C@@H](C)Oc2ccc(NS(=O)(=O)c3ccc(Cl)cc3)cc2C(=O)N([C@@H](C)CO)C[C@H]1C
CCOC(=O)C[C@@H](N)c1ccccc1Cl
Cc1ccc(S(=O)(=O)Nc2ccc3c(c2)C(=O)N([C@@H](C)CO)C[C@@H](C)[C@@H](CN(C)Cc2ccccc2)OCCCC[C@H](C)O3)cc1
COc1ccccc1S(=O)(=O)N[C@@H]1CC[C@H](CCNC(=O)C2CCOCC2)O[C@H]1CO
C[C@@H]1CN([C@@H](C)CO)C(=O)Cc2cc(NC(=O)Cc3cn(C)c4ccccc34)ccc2O[C@H]1CN(C)Cc1ccc(-c2ccccc2)cc1
COc1ccc(NC(=O)N(C)C[C@H]2OCCCC[C@H](C)Oc3ccc(NC(=O)Cc4ccccc4)cc3C(=O)N([C@H](C)CO)C[C@@H]2C)cc1
